{"source": "paper PMC2933790", "binders": {"B1": {"name": "properdin, P27918 28-469 (natural protein)", "chain": "DPVLCFTQYEESSGKCKGLLGGGVSVEDCCLNTAFAYQKRSGGLCQPCRSPRWSLWSTWAPCSVTCSEGSQLRYRRCVGWNGQCSGKVAPGTLEWQLQACEDQQCCPEMGGWSGWGPWEPCSVTCSKGTRTRRRACNHPAPKCGGHCPGQAQESEACDTQQVCPTHGAWATWGPWTPCSASCHGGPHEPKETRSRKCSAPEPSQKPPGKPCPGLAYEQRRCTGLPPCPVAGGWGPWGPVSPCPVTCGLGQTMEQRTCNHPVPQHGGPFCAGDATRTHICNTAVPCPVDGEWDSWGEWSPCIRRNMKSISCQEIPGQQSRGRTCRGRKFDGHRCAGQQQDIRHCYSIQHCPLKGSWSEWSTWGLCMPPCGPNPTRARQRLCTPLLPKYPPTVSMVEGQGEKNVTFWGRPLPRCEELQGQKLVVEEKRPCLHVPACKDPEEEEL"}}, "biological_target": "T1, properdin (human), P27918", "T1 chain": "B1 chain", "test": "SEC", "settings": "remark: other sources report otherwise", "note": "“And” between values parts separate entries of the source, which are not always exact repeats. Equal values may be shown once."}
{"binder": "B1", "values": [{"measurement": "stoichiometry N", "result": "2 and 3 and 4"}]}
